{"source": "the supplement of paper PMC8728848", "assay_in_all_cases": "glycan array binding signal (z-score within array); higher = stronger binding", "conditions_in_all_cases": "glycan notation: IUPAC condensed, linker removed", "key": {"[1]": {"biological_target": "Fuc(a1-2)Gal", "summary_of_the_method": "(§1)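 The binding signal is a Z-score computed within each array. Data were drawn from 3228 arrays in the Consortium for Functional Glycomics database, restricted to those with a known protein sequence. Scores were averaged over arrays of the same protein sequence at different concentrations or buffers, and over linkers, and negative values can be taken as non-binding.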"}, "[2]": {"biological_target": "Fuc(a1-2)Gal(b1-3)GalNAc", "summary_of_the_method": "as §1"}, "[3]": {"biological_target": "Fuc(a1-2)Gal(b1-3)GalNAc(a1-3)[Fuc(a1-2)]Gal(b1-4)Glc", "summary_of_the_method": "as §1"}, "[4]": {"biological_target": "Fuc(a1-2)Gal(b1-3)GalNAc(a1-3)[Fuc(a1-2)]Gal(b1-4)GlcNAc", "summary_of_the_method": "as §1"}, "[5]": {"biological_target": "Fuc(a1-2)Gal(b1-3)GalNAc(b1-3)Gal", "summary_of_the_method": "as §1"}, "[6]": {"biological_target": "Fuc(a1-2)Gal(b1-3)GalNAc(b1-3)Gal(a1-4)Gal(b1-4)Glc", "summary_of_the_method": "as §1"}, "[7]": {"biological_target": "Fuc(a1-2)Gal(b1-3)GalNAc(b1-4)[Neu5Ac(a2-3)]Gal(b1-4)Glc", "summary_of_the_method": "as §1"}, "[8]": {"biological_target": "Fuc(a1-2)Gal(b1-3)GlcNAc", "summary_of_the_method": "as §1"}, "[9]": {"biological_target": "Fuc(a1-2)Gal(b1-3)GlcNAc(b1-2)Man(a1-3)[Fuc(a1-2)Gal(b1-3)GlcNAc(b1-2)Man(a1-6)]Man(b1-4)GlcNAc(b1-4)GlcNAc", "summary_of_the_method": "as §1"}, "[10]": {"biological_target": "Fuc(a1-2)Gal(b1-3)GlcNAc(b1-2)Man(a1-3)[Fuc(a1-2)Gal(b1-3)GlcNAc(b1-2)Man(a1-6)]Man(b1-4)GlcNAc(b1-4)[Fuc(a1-6)]GlcNAc", "summary_of_the_method": "as §1"}, "[11]": {"biological_target": "Fuc(a1-2)Gal(b1-3)GlcNAc(b1-3)Gal(b1-4)Glc", "summary_of_the_method": "as §1"}, "[12]": {"biological_target": "Fuc(a1-2)Gal(b1-3)GlcNAc(b1-3)GalNAc", "summary_of_the_method": "as §1"}, "[13]": {"biological_target": "Fuc(a1-2)Gal(b1-3)GlcNAc(b1-3)[Fuc(a1-2)Gal(b1-3)GlcNAc(b1-6)]GalNAc", "summary_of_the_method": "as §1"}, "[14]": {"biological_target": "Fuc(a1-2)Gal(b1-3)GlcNAc(b1-3)[Fuc(a1-3)[Gal(b1-4)]GlcNAc(b1-6)]Gal(b1-4)Glc", "summary_of_the_method": "as §1"}, "[15]": {"biological_target": "Fuc(a1-2)Gal(b1-3)GlcNAc(b1-3)[Gal(b1-4)GlcNAc(b1-6)]Gal(b1-4)Glc", "summary_of_the_method": "as §1"}, "[16]": {"biological_target": "Fuc(a1-2)Gal(b1-3)GlcNAc(b1-3)[Neu5Ac(a2-6)Gal(b1-4)GlcNAc(b1-6)]Gal(b1-4)Glc", "summary_of_the_method": "as §1"}, "[17]": {"biological_target": "Fuc(a1-2)Gal(b1-3)GlcNAc6S", "summary_of_the_method": "as §1"}, "[18]": {"biological_target": "Fuc(a1-2)Gal(b1-3)[Fuc(a1-4)]GlcNAc", "summary_of_the_method": "as §1"}, "[19]": {"biological_target": "Fuc(a1-2)Gal(b1-3)[Fuc(a1-4)]GlcNAc(b1-2)Man(a1-3)[Fuc(a1-2)Gal(b1-3)[Fuc(a1-4)]GlcNAc(b1-2)Man(a1-3)]Man(b1-4)GlcNAc(b1-4)GlcNAc", "summary_of_the_method": "as §1"}, "[20]": {"biological_target": "Fuc(a1-2)Gal(b1-3)[Fuc(a1-4)]GlcNAc(b1-2)Man(a1-3)[Fuc(a1-2)Gal(b1-3)[Fuc(a1-4)]GlcNAc(b1-2)Man(a1-6)]Man(b1-4)GlcNAc(b1-4)GlcNAc", "summary_of_the_method": "as §1"}, "[21]": {"biological_target": "Fuc(a1-2)Gal(b1-3)[Fuc(a1-4)]GlcNAc(b1-2)Man(a1-3)[Fuc(a1-2)Gal(b1-3)[Fuc(a1-4)]GlcNAc(b1-2)Man(a1-6)]Man(b1-4)GlcNAc(b1-4)[Fuc(a1-6)]GlcNAc(b1-4)[Fuc(a1-6)]GlcNAc", "summary_of_the_method": "as §1"}, "[22]": {"biological_target": "Fuc(a1-2)Gal(b1-3)[Fuc(a1-4)]GlcNAc(b1-3)[Fuc(a1-3)[Gal(b1-4)]GlcNAc(b1-6)]Gal(b1-4)Glc", "summary_of_the_method": "as §1"}, "[23]": {"biological_target": "Fuc(a1-2)Gal(b1-3)[Fuc(a1-4)]GlcNAc(b1-3)[Gal(b1-4)GlcNAc(b1-6)]Gal(b1-4)Glc", "summary_of_the_method": "as §1"}, "[24]": {"biological_target": "Fuc(a1-2)Gal(b1-4)Fuc(a1-3)]GlcNAc(b1-2)Man(a1-3)[Fuc(a1-2)Gal(b1-4)[Fuc(a1-3)]GlcNAc(b1-2)Man(a1-6)]Man(b1-4)GlcNAc(b1-4)GlcNAc", "summary_of_the_method": "as §1"}, "[25]": {"biological_target": "Fuc(a1-2)Gal(b1-4)Glc", "summary_of_the_method": "as §1"}, "[26]": {"biological_target": "Fuc(a1-2)Gal(b1-4)Glc6S", "summary_of_the_method": "as §1"}, "[27]": {"biological_target": "Fuc(a1-2)Gal(b1-4)GlcNAc", "summary_of_the_method": "as §1"}, "[28]": {"biological_target": "Fuc(a1-2)Gal(b1-4)GlcNAc(b1-2)Man", "summary_of_the_method": "as §1"}, "[29]": {"biological_target": "Fuc(a1-2)Gal(b1-4)GlcNAc(b1-2)Man(a1-3)[Fuc(a1-2)Gal(b1-4)GlcNAc(b1-2)Man(a1-6)]Man(b1-4)GlcNAc(b1-4)GlcNAc", "summary_of_the_method": "as §1"}, "[30]": {"biological_target": "Fuc(a1-2)Gal(b1-4)GlcNAc(b1-2)Man(a1-3)[Fuc(a1-2)Gal(b1-4)GlcNAc(b1-2)Man(a1-6)]Man(b1-4)GlcNAc(b1-4)[Fuc(a1-6)]GlcNAc", "summary_of_the_method": "as §1"}}, "note": "The other results are listed elsewhere or left out.", "data": [{"binder": "rCNL (Clitocybe nebularis), B2ZRS9 (protein) SITPGTYNITNVAYTNRLIDLTGSNPAENTLIIGHHLNKTPSGYGNQQWTLVQLPHTTIYTMQAVNPQSYVRVRDDNLVDGAALVGSQQPTPVSIESAGNSGQFRIKIPNLGLALTLPSDANSTPIVLGEVDETSTNQLWAFESVSAV", "values": [{"measurement": "glycan array binding signal (z-score)", "setting": "[1]", "value": -0.303}, {"measurement": "glycan array binding signal (z-score)", "setting": "[2]", "value": -0.244}, {"measurement": "glycan array binding signal (z-score)", "setting": "[3]", "value": 0.063}, {"measurement": "glycan array binding signal (z-score)", "setting": "[4]", "value": 0.333}, {"measurement": "glycan array binding signal (z-score)", "setting": "[5]", "value": -0.28}, {"measurement": "glycan array binding signal (z-score)", "setting": "[6]", "value": -0.262}, {"measurement": "glycan array binding signal (z-score)", "setting": "[7]", "value": -0.254}, {"measurement": "glycan array binding signal (z-score)", "setting": "[8]", "value": -0.298}, {"measurement": "glycan array binding signal (z-score)", "setting": "[9]", "value": -0.235}, {"measurement": "glycan array binding signal (z-score)", "setting": "[10]", "value": -0.185}, {"measurement": "glycan array binding signal (z-score)", "setting": "[11]", "value": -0.195}, {"measurement": "glycan array binding signal (z-score)", "setting": "[12]", "value": -0.226}, {"measurement": "glycan array binding signal (z-score)", "setting": "[13]", "value": -0.211}, {"measurement": "glycan array binding signal (z-score)", "setting": "[14]", "value": -0.049}, {"measurement": "glycan array binding signal (z-score)", "setting": "[15]", "value": -0.212}, {"measurement": "glycan array binding signal (z-score)", "setting": "[16]", "value": -0.227}, {"measurement": "glycan array binding signal (z-score)", "setting": "[17]", "value": -0.21}, {"measurement": "glycan array binding signal (z-score)", "setting": "[18]", "value": -0.295}, {"measurement": "glycan array binding signal (z-score)", "setting": "[19]", "value": -0.032}, {"measurement": "glycan array binding signal (z-score)", "setting": "[20]", "value": -0.326}, {"measurement": "glycan array binding signal (z-score)", "setting": "[21]", "value": -0.21}, {"measurement": "glycan array binding signal (z-score)", "setting": "[22]", "value": -0.273}, {"measurement": "glycan array binding signal (z-score)", "setting": "[23]", "value": -0.304}, {"measurement": "glycan array binding signal (z-score)", "setting": "[24]", "value": -0.227}, {"measurement": "glycan array binding signal (z-score)", "setting": "[25]", "value": -0.3}, {"measurement": "glycan array binding signal (z-score)", "setting": "[26]", "value": -0.246}, {"measurement": "glycan array binding signal (z-score)", "setting": "[27]", "value": -0.266}, {"measurement": "glycan array binding signal (z-score)", "setting": "[28]", "value": -0.207}, {"measurement": "glycan array binding signal (z-score)", "setting": "[29]", "value": -0.079}, {"measurement": "glycan array binding signal (z-score)", "setting": "[30]", "value": -0.116}]}]}
